Measurements as given in patent US4912133A, “BU-3862T antitumor antibiotic” (priority 1988, dated 1990).
Like-named read-outs stand apart in the source and are kept apart here.

Tested on: B16 melanoma
[1] = mouse, in vivo, ip, 2 mg/kg/day
[2] = mouse, in vivo, ip, 4 mg/kg/day
[3] = mouse, in vivo, ip, 8 mg/kg/day
[4] = mouse, in vivo, ip, 1 mg/kg/day

C=C(C)CC(NC(=O)[C@H](CO)NC(=O)CCCCC(C)C)C(=O)C1(CO)CO1 (stereo partly drawn) [BU-3862T]
Body wt. change on day 5 (Table 6, 0.13 mg/kg/day ip, QD × 9): +0.8 g
Body wt. change on day 5 (mouse, in vivo, ip, 0.63 mg/kg/day): +1.3 g
Body wt. change on day 5 [1]: -0.5 g
Body wt. change on day 5 [2]: -1.3 g
Body wt. change on day 5 [3]: -2.3 g

CC(C)CCCCC(=O)N[C@@H](CO)C(=O)NC(CC(C)C)C(=O)C1(CO)CO1 (stereo partly drawn) [Dihydro-BU-3862T]
Body wt. change on day 5 [4]: +0.5 g
Body wt. change on day 5 [1]: +0.5 g
Body wt. change on day 5 [2]: -0.5 g
Body wt. change on day 5 [3]: -1.0 g

C=C(C)CC(NC(=O)[C@H](COC(C)=O)NC(=O)CCCCC(C)C)C(=O)C1(COC(C)=O)CO1 (stereo partly drawn) [Diacetyl-BU-3862T]
Body wt. change on day 5 [4]: +0.3 g
Body wt. change on day 5 [1]: +1.0 g
Body wt. change on day 5 [2]: +0.5 g
Body wt. change on day 5 [3]: -2.0 g

CO[C@@]12[C@H](COC(N)=O)C3=C(C(=O)C(C)=C(N)C3=O)N1C[C@@H]1N[C@@H]12 [Mitomycin C, reference compound]
Body wt. change on day 5 (mouse, in vivo, ip, 0.25 mg/kg/day): +0.3 g
Body wt. change on day 5 (mouse, in vivo, ip, 0.5 mg/kg/day): +0.5 g
